Source: PubChem BioAssay AID1159614 (National Center for Advancing Translational Sciences (NCATS), 2016)
Hit rate of the full screen: of about 45,000 compounds, about 65 (0.1%) were called active. Calls follow the shape of the dose curve; as a rule, active = well fitted activation curve with a large enough effect; inconclusive = small, poorly fitted or top-dose-only effect; inactive = no such curve, though single readings can be large or run the other way. The list shows a part of the results.

Each compound was assayed against Galactocerebrosidase (Homo sapiens) (UniProt P54803) (assay: A Novel Cell-Based Assay to Identify Small Molecules for B -Galactocerebrosidase). Conditions: 145M-Twi-hGALC-G270D cells (Twitcher mouse brain line with human GALC G270D), HMU-beta-Gal fluorescence, 48 h; series mostly up to 57.5 µM; activation: at the top concentration.
Chain of UniProt P54803 (P54803 whole entry, looked up): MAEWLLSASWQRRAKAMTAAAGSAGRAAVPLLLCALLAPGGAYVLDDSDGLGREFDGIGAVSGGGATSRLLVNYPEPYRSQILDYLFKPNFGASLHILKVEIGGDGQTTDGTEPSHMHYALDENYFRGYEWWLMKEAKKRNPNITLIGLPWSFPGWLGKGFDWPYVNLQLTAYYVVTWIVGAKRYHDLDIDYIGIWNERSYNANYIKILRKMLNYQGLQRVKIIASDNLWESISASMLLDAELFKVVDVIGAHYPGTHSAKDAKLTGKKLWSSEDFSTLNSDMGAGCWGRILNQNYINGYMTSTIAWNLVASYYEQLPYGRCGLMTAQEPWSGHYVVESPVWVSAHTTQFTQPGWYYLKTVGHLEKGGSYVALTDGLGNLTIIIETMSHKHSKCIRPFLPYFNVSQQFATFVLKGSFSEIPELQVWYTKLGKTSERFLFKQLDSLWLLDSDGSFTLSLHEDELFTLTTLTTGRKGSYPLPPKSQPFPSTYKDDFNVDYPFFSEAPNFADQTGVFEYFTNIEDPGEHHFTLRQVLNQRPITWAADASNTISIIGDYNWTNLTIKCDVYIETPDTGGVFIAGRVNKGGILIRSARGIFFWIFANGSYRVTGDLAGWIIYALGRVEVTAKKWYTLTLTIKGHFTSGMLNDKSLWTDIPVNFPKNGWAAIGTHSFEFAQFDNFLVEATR
Source text: Lysosomal storage diseases (LSDs) are caused by genetic mutations in genes encoding proteins important for normal lysosomal function. Globoid cell leukodystrophy (GLD), mostly known as Krabbe disease, is a prototype of the neurological LSDs caused by deficiency of beta-galactocerebrosidase (GALC). In brain specimens of GLD patients, psychosine levels are substantially elevated. At elevated concentrations, psychosine becomes cytotoxic to neuronal cells, particularly to oligodendrocytes (OLG), neural cells responsible for myelin formation. Therefore, the biochemical disturbances in GLD are manifested by different degrees of brain demyelination resulting in a broad spectrum of neurological manifestations. Most of the FDA-approved therapies are based on enzyme replacement therapeutic (ERT) agents, which treat non-neurological symptoms of Gaucher disease, Fabry disease, few mucopolysaccharidoses and Pompe disease. Unfortunately, in GLD, a primarily neurological LSD, ERT agents, as large molecular weight molecules unable to cross the blood-brain barrier, which makes this an inefficacious therapeutic approach. In GLD, increasing the residual GALC activity just above the critical threshold (~10% of wild type enzymatic activity), the cytotoxic levels of psychosine will be reduced, avoiding the OLGs apoptosis and the subsequent demyelination process. This will translate in disease stabilization and amelioration of GLD patient symptoms.
A cell-based assay in 1,536-well plate format was developed to implement a quantitative high-throughput screening (qHTS) assay using GLD-disease relevant cells to identify small molecules that produce enhancements of the residual enzymatic activity levels of mutants GALC found and prevalent in GLD patients. Compounds that are active may therefore have some therapeutic application for GLD. After the treatment of live cells for a determined period, using a fluorescent GALC specific substrate, the mutant residual GALC activity is measured. This cell-based qTHS assay was used to screen part of the MLPCN library for small molecule able to increase the mutant GALC enzymatic activity. In this assay, increased fluorescent signal corresponds to enhanced levels of mutant GALC residual enzymatic activity. Activation is the desired outcome for this assay.
NIH Chemical Genomics Center [NCGC]
NIH Molecular Libraries Probe Centers Network [MLPCN]
Assay Submitter (PI): Gustavo Maegawa MD,PhD, University of Florida, Gainesville, FL
2)#Two cell lines were established for the assay: 145M-Twi-hGALC-G270D (brain-derived Twitcher cell line stably expressing human GALC-G270D) and 145M-Twi-hGALC-WT (same 145M-Twi stably expressing human GALC wild type). The Twitcher is the murine C57B/6 model for GLD with naturally occurring homozygous nonsense GALC mutation. The 145M-Twi cell line was established at Maegawa lab (Ribbens J et al 2014).
a.#Media: DMEM/F12 (1:1) with 10% fetal bovine-serum (FBS) with penicillin/streptomycin (PS-1X - 100 I.U./mL of penicillin+100 ug/mL of streptomycin).
b.#The 6-Hexadecanoylamino-4-methylumbelliferyl-b-D-galactoside (HMU-B-gal) substrate was prepared as per Wiederschain et al 1992. Using 20-mL borosilicate tubes, 2.20 mg of HMU-b-Gal was added in each tube to prepare substrate-film with a final air-nitrogen stream evaporation to remove all diluent solvents.
c.#The HMUb-Gal substrate buffer consists of 0.2 M Na2HPO4 (sodium phosphate dibasic)/ 0.1 M Citric Acid with the pH adjusted to 5.2 using HCl. Sodium Azide at 0.02% and Sodium Taurocholate (NaTC) at 1 mg/mL were added to this substrate buffer.
d.#The HMU-b-Gal stopping buffer consist of 0.5 M NaHCO3 (sodium bicarbonate) /0.5 M Na2CO3 (sodium carbonate). […] Triton X-100 at 0.25% was added.
4)#Preparation of HMU-b-Gal substrate tubes
Adding 18.6 mL of the HMUb-Gal substrate buffer to each 20-mL tube (2.20 mg of HMU-b-Gal) will reach a concentration of 0.2 mM. Vortex well the tube until the solution is fully homogenized (clear cloudy solution). […]
Also: 0% is about no effect; nearly all actives have a fitted effect of over 65% in size.

activation, inactive:
Cc1ccc(CNC(=O)CN2C(=O)CSc3ccc(S(=O)(=O)N4CCCC4)cc32)cc1 -11.6%
CN(C)c1ccc(CNC(=O)CN2C(=O)CCn3nc(-c4cn(C)c5ccccc45)cc32)cc1 -19.9%
COc1cccc(-c2nc3c(c(SCc4ccccc4Cl)n2)Cc2c(CO)cnc(C)c2O3)c1 -14.3%
COc1ccc(CNS(=O)(=O)c2ccc(F)c(C(=O)Nc3c(C)cc(C)cc3C)c2)cc1 -6.51%
CCOC(=O)c1cc(-c2ccc(OC)cc2)n(CCC(=O)Nc2cccc(C(C)=O)c2)c1C -17.2%
Cc1cc2oc(C(=O)Nc3sc4c(c3C(=O)NCc3ccccc3)CCCC4)cc(=O)c2cc1C -5.61%
CCC(CC)C(=O)NCc1nc2cccnc2n1Cc1ccc(F)cc1 -22.6%
CCCN(CCC)C(=O)c1cn(CC)c2ccc(S(=O)(=O)N3CCCCC3)cc2c1=O -18.4%
COc1cccc(CNC(=O)C2CCN(C(=O)c3sccc3-n3cccc3)CC2)c1 -2.01%
O=C(NCCCO)C(=O)Nc1c2c(nn1-c1ccccc1)CSC2 -9.62%
CCCN(CCC)C(=O)C1CCCN(c2ncnc3onc(-c4ccc(F)cc4)c23)C1 (stereo not given) -4.73%
Cc1ccc(CSCCC(=O)N2CCN(c3cc(C)ccc3C)CC2)cc1 -8.86%
COCCCNC(=O)c1sc2nc(C)c(C(=O)Nc3ccc(C)cc3C)c(-c3ccc(Br)cc3)c2c1N -23.1%
CCC(C)NC(=O)CSc1nnc(-c2ccc(C)cc2)c(-c2ccc(C)cc2)n1 (stereo not given) -3.49%
COc1ccc(-c2noc(CN(C(=O)Cc3ccc(C)cc3)C(C)C)n2)cc1 -33.2%
COc1cc(C)ccc1OCCSc1nc2ccc(NC(=O)c3cccs3)cc2s1 -24.7%
Cc1ccc(C(=O)Nc2ccccc2C(=O)OCc2cc(=O)n3nc(C4CC4)sc3n2)cc1 3.78%
O=C(CN1C(=O)C2(SCC(=O)N2c2ccccc2)c2ccccc21)NCCc1ccccc1 (stereo not given) 5.16%
Cc1cn2c(=O)cc(COC(=O)c3ccccc3F)nc2s1 -10.9%
CCc1ccc(NC(=O)CSc2nc3c(sc4ccccc43)c(=O)n2CCN(CC)CC)cc1 -12.5%
Cc1ccc(CNS(=O)(=O)c2cc3c(cc2C)N(C)CCO3)cc1 -15.5%
CCN(CC)CCCNC(=O)C(=O)Nc1ccc2nc3n(c(=O)c2c1)CCCCC3 -12.8%
COc1ccc(/C=C/C(=O)Nc2ccc(Cl)cc2Cl)cc1 -13.7%
Cc1ccc(Cn2ccnc2SCC(=O)Nc2ccc3c(c2)OCCO3)cc1 -15.4%
Cc1ccc(CNC(=O)c2cccc(NC(=O)N3CCSc4ncccc43)c2)cc1 -3.02%
Cc1ccc(S(=O)(=O)C(CNC(=O)COc2ccc(Cl)cc2)c2ccco2)cc1 (stereo not given) -11.9%
CC(=O)Nc1cccc(NC(=O)CSc2nccn2Cc2ccco2)c1 -15%
Cc1cc(C)cc(NC(=O)CCCc2nnc3n(CC(C)C)c(=O)c4sccc4n23)c1 -4.91%
Cc1ccc(NC(=O)Cn2cc(C(=O)c3ccco3)c3ccccc32)c(C)c1 -10.6%
Cc1ccccc1CNC(=O)c1cc2cccc3c2n1CC(C)S3 (stereo not given) -19%
CCOc1cc(C2CC(=O)Nc3c2c(=O)nc(SCc2cccc(Cl)c2)n3C)ccc1O (stereo not given) -7.33%
O=C(Nc1cccc(Cl)c1)c1cc(S(=O)(=O)N2CCCc3ccccc32)ccc1F -11.4%
CC(=O)Nc1ccc(NC(=O)c2nc(SCc3ccccc3C)ncc2Cl)cc1 -9.64%
COc1cccc(OCc2cc(=O)n3cc(C)sc3n2)c1 -2.34%
CCOc1ccc(OCC)c(-n2cnnn2)c1 -7.16%
Fc1ccccc1N1CCN(c2ncnc3onc(-c4cccc(Cl)c4)c23)CC1 0.288%
Cc1c(NC(=O)Nc2ccc(Cl)c(C(F)(F)F)c2)c(=O)n(-c2ccccc2)n1C -4.04%
COc1ccc(-c2cc3c(=O)n(CC(=O)Nc4cc(C)ccc4C)ccn3n2)cc1 -12.5%
COc1ccc(-n2c(SCC(=O)NC3CCCCC3)nc3c([nH]c4ccccc43)c2=O)cc1 -9.53%
Cc1ccc(Cl)cc1-n1ncc2c(NCCC3=CCCCC3)ncnc21 2.21%
NS(=O)(=O)c1ccc(NC(=O)CN2CCN(c3ccc(F)cc3)CC2)cc1 -7.86%
Cn1c(=O)c2c(-c3ccccc3Br)n(Cc3ccccc3)cc2n(C)c1=O -12.5%
Cc1cccn2c(=O)cc(COc3ccc(NC(=O)C(C)Oc4ccccc4)cc3)nc12 (stereo not given) -14.1%
Cc1cccc(Cc2c(C)nc3nc(SCc4cccc(F)c4)nn3c2C)c1 -4.24%
O=S(=O)(c1ccccc1)c1nnn2c1nc(NC1CCCCCC1)c1sccc12 -14.8%
O=C(CN(c1cccc(C(F)(F)F)c1)S(=O)(=O)c1ccccc1)Nc1cccc(Cl)c1 -23.3%
Cc1ccc(-c2nc(S(=O)(=O)c3ccc(C)cc3)c(N3CCCCC3)o2)cc1 -10.1%
COc1ccccc1CNC(=O)C(=O)NCC(c1cccnc1)N1CCN(c2ccc(F)cc2)CC1 (stereo not given) -11.6%
Cc1ccc(Cn2ccnc2SCC(=O)NC2CCCC2)cc1 -21.5%
COc1cc(S(=O)(=O)n2ccnc2C(C)C)ccc1Br -15.7%
CCOc1ccc(CCNC(=O)CN2C(=O)COc3ccc(S(=O)(=O)N(CC)CC)cc32)cc1 -2.79%
COc1cccc(N2CC(NC(=O)C3CCCC3)CC2=O)c1 (stereo not given) -21.5%
COc1ccc(N2CCN(C(=O)c3c4c(nc5ccccc35)C(=O)N(C3CCCCC3)C4)CC2)cc1 -17.5%
C=CCOc1ccccc1OCC(O)CNC(C)C (stereo not given) -13.7%
COc1ccc2c(CNCc3ccco3)c(C(=O)O)n(Cc3ccccc3)c2c1 7.93%
COc1ccccc1NC(=O)COC(=O)CC(C)(C)CC1=NS(=O)(=O)c2ccccc2N1 -7.73%
COc1ccc(Cl)cc1NC(=O)Cn1nnc(C(=O)NCc2cccs2)c1N -11.5%
COc1ccc(-c2nnc(SCC(=O)c3ccc(NC(C)=O)cc3)o2)cc1OC -5.74%
COc1ccc(-c2nc3ccccc3o2)cc1NC(=O)c1ccc(OCC(C)C)cc1 -2.57%
COC(=O)c1c(-c2cccs2)csc1NC(=O)c1ccc(C(C)(C)C)cc1 -15.9%
CSc1ccc(C2c3[nH]c4ccccc4c3CCN2C(=O)CCC2CCCC2)cc1 (stereo not given) 10.5%
CCc1ccc(-n2c(=O)c3ccc(C(=O)NCCc4ccccc4)cc3n(Cc3ccccc3C#N)c2=O)cc1 -10.8%
O=C(Nc1ccc2nc(SCC(=O)N3CCCC3)sc2c1)c1cccc(F)c1 -10.5%
O=C(NCCCN1CCCCC1)c1ccc2c(c1)sc1nc(-c3ccc(F)cc3)cn12 -14.2%
NC(=O)C1CCN(C(=O)c2ccc3c(c2)N(Cc2cccc(Cl)c2)C(=O)c2ccccc2S3(=O)=O)CC1 -16.4%
CCOC(=O)c1c(-c2ccc(C)cc2C)csc1NC(=O)c1ccccc1Cl -13.2%
CCOc1ccc(NS(=O)(=O)c2ccc3[nH]cc(C(=O)N(C)C4CCCCC4)c(=O)c3c2)cc1 -12.5%
Cc1ccc2c(=O)cc(C(=O)Nc3c(C(=O)c4ccccc4)oc4ccccc34)oc2c1 0.735%
CC(CNC(=O)c1ccc(Nc2nc3ccccc3n3nnnc23)cc1)c1ccccc1 (stereo not given) -24.5%
NC(=O)Cn1c(=O)n(CCCCCC(=O)NCc2ccccc2Cl)c(=O)c2sccc21 -4.9%
COCCNC(=O)Cn1cc2c(n1)-c1c(oc(C(=O)N3CCCC3)c1C)CC2 -3.73%
COC(=O)c1c(-c2cccs2)csc1NC(=O)COc1ccccc1 -15.1%
O=C(O)c1ccc[n+]([O-])c1 -12.2%
CCC(=O)N1CCN(c2nc3c(C)cccc3s2)CC1 -3.17%
CCCCOC(=O)/C(C#N)=C/c1ccc(-c2ccc(Br)cc2)o1 -9.28%
CCCn1c2ccccc2c2cnn(CC(=O)NC(C)CC)c(=O)c21 (stereo not given) -8.89%
COc1ccc(OC(=O)CSc2nnc(-c3ccc(F)cc3)o2)cc1 -7.57%
Cc1c(N)c(=O)n(-c2ccccc2)n1C -11.7%
Cc1ccc(NC(=O)CCCN2C(=O)COc3ccc(C)cc32)c(C)c1 0.762%
CCc1cccc(C)c1NC(=O)c1nc2ccccc2nc1N1CCCCC1 -14.8%
COc1ccc2c(Sc3ccccc3)c(C(=O)N3CCC(C)CC3)[nH]c2c1 -12.8%
Cc1ccc(N2C(=O)CSC23C(=O)N(CC(=O)Nc2ccc(C)cc2C)c2ccccc23)cc1 (stereo not given) -14.7%
Cc1ccc([N+](=O)[O-])c(Oc2ncnc3c2oc2ccccc23)c1 -9.98%
CC(C)Oc1ccc(CNC(=O)c2cnc3sc(N4CCCCCC4)nn3c2=O)cc1 -8.71%
Cc1ccc(NC(=O)c2cc(-c3cccs3)nc3ccccc23)c(C)c1 -10.9%
O=C(NCc1ccc(F)cc1Cl)c1ccc(CSCc2ccccc2Cl)o1 -17.1%
CC(C)CCn1c(=O)c2sccc2n2c(CCCC(=O)Nc3ccc(F)c(Cl)c3)nnc12 -24.6%
Cc1ccc(N2CCN(C(=O)Nc3cn(CC(C)C)c(=O)c4ccccc34)CC2)c(C)c1 -22%
CCCN(CCC)CCNC(=O)Cn1cnc2sc(C)c(S(=O)(=O)N3CCN(c4ccccc4OC)CC3)c2c1=O -27.2%
COc1ccccc1/C=C(\C#N)C(=O)NCC1CCCO1 (stereo not given) 18.1%
COc1cccc(CNC(=O)c2ccc(CN3CC(=O)N4CCCCC4C3=O)cc2)c1 (stereo not given) -7.29%
CCn1c(C(=O)NCc2ccccc2)cc2sc(Cl)cc21 -20.6%
Cc1ccc(CNC(=O)c2ccc(CSCc3c(F)cccc3Cl)o2)cc1 -3.59%
CCOc1ccc(/C=C/c2nc(C#N)c(N3CCCCCC3)o2)cc1 -5.18%
COc1ccccc1NC(=O)N1CCOc2ccccc21 -17.4%
Cc1cc(C)n2nc(CNS(=O)(=O)c3ccc(F)cc3)nc2n1 3.24%
COc1ccccc1NC(=O)Cn1c(=O)n(Cc2nc(C)no2)c(=O)c2cc3c(cc21)OCO3 -6.01%
CCc1ccc(NC(=O)c2cc(CN3CCOCC3)on2)cc1 -15%
CCOc1ccccc1NC(=O)CCS(=O)(=O)c1ccc(OC)cc1 -2.79%
CCOC(=O)c1[nH]c(C)c(C(=O)NCCc2ccccc2)c1C 5.65%
